Test results as given in the supplement of paper PMC4967469.

How the values were obtained:
Test in all cases: Viability of human cancer cell lines after 72 h of drug (GDSC screen)
Thapsigargin = compound: C/C=C(/C)C(=O)O[C@H]1C(C)=C2[C@H]([C@@H]1OC(=O)CCCCCCC)[C@@](C)(OC(C)=O)C[C@H](OC(=O)CCC)[C@@]1(O)[C@H]2OC(=O)[C@@]1(C)O [Thapsigargin]; conditions: top dose 0.512 µM; top dose inferred
Method: (§1)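 Human cancer cell lines in 384-well plates, medium with 10% serum, drug for 72 h over a 256-fold dose range (nine 2-fold or five 4-fold steps up to the top dose). Adherent lines were fixed and stained with the nucleic acid dye Syto60, suspension lines read with resazurin; signal relative to control wells, capped at 0 and 100%. One two-parameter sigmoid per drug and line, fitted in a mixed model over all curves with the slope shared within a line.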

(5Z)-7-Oxozeaenol = compound: COc1cc(O)c2c(c1)/C=C/C[C@H](O)[C@H](O)C(=O)/C=C\C[C@H](C)OC2=O [(5Z)-7-Oxozeaenol]; conditions: top dose 10 µM; top dose inferred
Method: as §1

CP466722 = compound: COc1cc2ncnc(-n3nc(-c4ccccn4)nc3N)c2cc1OC [CP466722]; conditions: top dose 16 µM; top dose inferred
Method: as §1

GSK269962A = compound: CCn1c(-c2nonc2N)nc2cnc(Oc3cccc(NC(=O)c4ccc(OCCN5CCOCC5)cc4)c3)cc21 [GSK269962A]; conditions: top dose inferred
Method: as §1

CHIR-99021 = compound: Cc1cnc(-c2cnc(NCCNc3ccc(C#N)cn3)nc2-c2ccc(Cl)cc2Cl)[nH]1 [CHIR-99021]
Method: as §1

QL-X-138 = compound: C=CC(=O)Nc1cc(-n2c(=O)ccc3cnc4ccc(-c5cn[nH]c5)cc4c32)ccc1C [QL-X-138]; conditions: top dose 10.24 µM; top dose inferred
Method: as §1

ABT-869 = compound: Cc1ccc(F)c(NC(=O)Nc2ccc(-c3cccc4[nH]nc(N)c34)cc2)c1 [ABT-869]; conditions: top dose 1.024 µM; top dose inferred
Method: as §1

Zibotentan = compound: COc1nc(C)cnc1NS(=O)(=O)c1cccnc1-c1ccc(-c2nnco2)cc1 [Zibotentan]; conditions: top dose 20 µM; top dose inferred
Method: as §1

MPS-1-IN-1 = compound: COc1cc(N2CCC(O)CC2)ccc1Nc1cc(Nc2ccccc2S(=O)(=O)C(C)C)c2cc[nH]c2n1 [MPS-1-IN-1]; conditions: top dose 20 µM; top dose inferred
Method: as §1

[1] = top dose 5 µM, screen: GDSC drug entry 1192
[2] = top dose 2.56 µM, screen: GDSC drug entry 154
[3] = top dose 10 µM, screen: GDSC drug entry 1241, top dose inferred
[4] = top dose 2.5 µM, screen: GDSC drug entry 127

| Cell Line | AUC (Thapsigargin) | IC50 (Thapsigargin) [µM] | AUC ((5Z)-7-Oxozeaenol) | IC50 ((5Z)-7-Oxozeaenol) [µM] | AUC (CP466722) | IC50 (CP466722) [µM] | AUC (GSK269962A; [1]) | IC50 (GSK269962A; [1]) [µM] | AUC (CHIR-99021; [2]) | IC50 (CHIR-99021; [2]) [µM] | AUC (CHIR-99021; [3]) | IC50 (CHIR-99021; [3]) [µM] | AUC (QL-X-138) | IC50 (QL-X-138) [µM] | AUC (ABT-869) | IC50 (ABT-869) [µM] | AUC (Zibotentan) | IC50 (Zibotentan) [µM] | AUC (MPS-1-IN-1) | IC50 (MPS-1-IN-1) [µM] | AUC (GSK269962A; [4]) | IC50 (GSK269962A; [4]) [µM] |
| --- | --- | --- | --- | --- | --- | --- | --- | --- | --- | --- | --- | --- | --- | --- | --- | --- | --- | --- | --- | --- | --- | --- |
| H2804 (mesothelioma, adherent) | 0.289 | 0.00762 | 0.882 | > 10 | 0.849 | 13.8 | 0.982 | > 5 | 0.924 | > 2.56 | 0.664 | 1.88 | 0.877 | > 10.2 | 0.983 | > 1.02 | 0.983 | > 20 | 0.983 | > 20 |  |  |
| H2810 (mesothelioma, adherent) |  |  | 0.808 | 5.84 |  |  | 0.943 | > 5 |  |  | 0.851 | 8.93 |  |  |  |  |  |  |  |  |  |  |
| H2818 (mesothelioma, adherent) | 0.924 | > 0.512 | 0.747 | 3.26 | 0.944 | > 16 | 0.946 | > 5 | 0.981 | > 2.56 | 0.955 | > 10 | 0.962 | > 10.2 | 0.985 | > 1.02 | 0.989 | > 20 | 0.987 | > 20 |  |  |
| HO-1-N-1 (head and neck, adherent) | 0.837 | 0.303 | 0.474 | 0.534 | 0.932 | > 16 | 0.815 | 2.46 | 0.988 | > 2.56 | 0.951 | > 10 | 0.887 | 9.84 | 0.987 | > 1.02 | 0.988 | > 20 | 0.961 | > 20 |  |  |
| HPAC (pancreas, adherent) | 0.085 | < 0.002 | 0.765 | 5.16 | 0.858 | > 16 | 0.918 | > 5 | 0.978 | > 2.56 | 0.976 | > 10 | 0.79 | 6.76 | 0.979 | > 1.02 | 0.979 | > 20 | 0.786 | 12.7 |  |  |
| HPAF-II (pancreas, adherent) | 0.627 | 0.0799 | 0.585 | 1.15 | 0.886 | > 16 | 0.808 | 3.63 | 0.971 | > 2.56 | 0.963 | > 10 | 0.813 | 7.75 | 0.981 | > 1.02 | 0.972 | > 20 | 0.842 | > 20 |  |  |
| KOSC-2 (head and neck, adherent) | 0.882 | > 0.512 | 0.711 | 2.54 |  |  | 0.905 | > 5 | 0.983 | > 2.56 | 0.933 | > 10 | 0.944 | > 10.2 | 0.978 | > 1.02 | 0.985 | > 20 | 0.939 | > 20 |  |  |
| NCI-H1650 (lung adenocarcinoma, adherent) |  |  | 0.752 | 4.26 |  |  | 0.965 | > 5 |  |  | 0.963 | > 10 |  |  |  |  |  |  |  |  |  |  |
| NCI-H2170 (lung squamous cell carcinoma, adherent) | 0.233 | 0.00514 | 0.833 | 6.9 | 0.934 | > 16 | 0.782 | 2.19 |  |  |  |  | 0.953 | > 10.2 | 0.983 | > 1.02 | 0.986 | > 20 | 0.985 | > 20 |  |  |
| NCI-H2228 (lung adenocarcinoma, adherent) | 0.299 | 0.00645 | 0.838 | > 10 | 0.857 | > 16 | 0.91 | > 5 |  |  |  |  | 0.786 | 7.15 | 0.968 | > 1.02 | 0.972 | > 20 | 0.669 | 4.73 |  |  |
| SNU-175 (large intestine, suspension) |  |  |  |  | 0.657 | 2.64 |  |  |  |  |  |  | 0.689 | 2.09 | 0.979 | > 1.02 | 0.982 | > 20 | 0.743 | 5.89 |  |  |
| SNU-475 (liver, adherent) | 0.912 | > 0.512 |  |  | 0.879 | 13.1 |  |  | 0.99 | > 2.56 |  |  | 0.863 | 7.2 | 0.988 | > 1.02 | 0.991 | > 20 | 0.899 | > 20 |  |  |
| SNU-1040 (large intestine, adherent) |  |  | 0.926 | > 10 | 0.669 | 3.49 | 0.941 | > 5 |  |  | 0.98 | > 10 | 0.773 | 5.4 | 0.975 | > 1.02 | 0.981 | > 20 | 0.853 | > 20 |  |  |
| SW1116 (large intestine, adherent) |  |  | 0.603 | 1.32 | 0.911 | > 16 | 0.949 | > 5 |  |  | 0.937 | > 10 | 0.982 | > 10.2 | 0.985 | > 1.02 | 0.984 | > 20 | 0.981 | > 20 |  |  |
| UACC-812 (breast, adherent) | 0.989 | > 0.512 |  |  | 0.84 | 10.4 |  |  | 0.991 | > 2.56 |  |  | 0.954 | > 10.2 | 0.991 | > 1.02 | 0.99 | > 20 | 0.976 | > 20 | 0.988 | > 2.5 |
| YMB-1-E (breast, adherent) |  |  |  |  | 0.877 | > 16 |  |  |  |  |  |  | 0.648 | 1.92 | 0.98 | > 1.02 | 0.981 | > 20 | 0.898 | > 20 |  |  |

A lower IC50 marks a more sensitive line; a limit (>, <) means that the fit lies beyond the doses tested. AUC is the area under the same curve over the 256-fold range up to the top dose, as a fraction; it is 1 without any effect and falls as sensitivity rises. A top dose marked as inferred is not printed in the source and was worked back from the curve model. For some of these results: Where an entry number is given, a second screen of the drug exists; the two often differ.
